# Growth of fresh clinical P. falciparum isolates by hypoxanthine uptake over 42 h; for most isolates 1.6-1,647 nM mefloquine, 0.044-87 nM artesunate, 10-10,256 nM chloroquine, 2.4-236 nM lumefantrine. EC50, lower = more sensitive; slope from the same fit, higher = steeper. No active / inactive call. Fits with a coefficient of variation above 100% are not listed here; 15-28% of fits exceed 15%. Isolates are numbered anew.
# What was measured:
# mefloquine [1] = compound: T1, OC(c1cc(C(F)(F)F)nc2c(C(F)(F)F)cccc12)C1CCCCN1 [mefloquine]; experiment: slope of the dose-response curve (dimensionless); higher = steeper concentration-effect curve
# Experimental: (§1)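 Hypoxanthine uptake by fresh isolates, duplicate serial dilutions, 24 h of drug plus 18 h after the label; sigmoid fit per isolate.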
# artesunate [2] = compound: T2, C[C@H]1[C@H](OC(=O)CCC(=O)O)O[C@@H]2O[C@@]3(C)CC[C@H]4[C@H](C)CC[C@@H]1[C@@]24OO3 [artesunate]; experiment: as above
# Experimental: as §1
# chloroquine [3] = compound: T3, CCN(CC)CCCC(C)Nc1ccnc2cc(Cl)ccc12 [chloroquine]; experiment: as above
# Experimental: as §1
# mefloquine [4] = compound: T1, mefloquine
# Experimental: as §1
# artesunate [5] = compound: T2, artesunate
# Experimental: as §1
# chloroquine [6] = compound: T3, chloroquine
# Experimental: as §1
Test System,slope (mefloquine [1]),slope (artesunate [2]),slope (chloroquine [3]),EC50 of parasite growth (mefloquine [4]) [µg/mL],EC50 of parasite growth (artesunate [5]) [µg/mL],EC50 of parasite growth (chloroquine [6]) [µg/mL]
"Plasmodium falciparum isolate 121 (pfmdr1 allele: 86N, 1042N, pfmdr1 copies: 2)",3.13,5.25,3.31,0.036,0.00297,0.148
"Plasmodium falciparum isolate 280 (pfmdr1 allele: 86N, 1042N, pfmdr1 copies: 2)",–,4.34,3.37,–,0.000503,0.594
"Plasmodium falciparum isolate 86 (pfmdr1 allele: 86N, 1042N, pfmdr1 copies: 4)",2.56,3.95,2.73,0.029,0.000199,0.047
"Plasmodium falciparum isolate 411 (pfmdr1 allele: 86N, 1042N, pfmdr1 copies: 1)",5.2,–,2.43,0.0107,–,0.0524
"Plasmodium falciparum isolate 71 (pfmdr1 allele: 86N, 1042N, pfmdr1 copies: 1)",2.36,7.54,3.31,0.00963,0.000433,0.0947
"Plasmodium falciparum isolate 467 (pfmdr1 allele: 86N, 1042N, pfmdr1 copies: 2)",–,0.731,1.8,–,0.00145,0.309
"Plasmodium falciparum isolate 186 (pfmdr1 allele: 86N, 1042N, pfmdr1 copies: 1)",1.54,5.32,3.1,0.0589,0.00201,0.0905
"Plasmodium falciparum isolate 37 (pfmdr1 allele: 86N, 1042N, pfmdr1 copies: 3)",6.33,8.56,4.43,0.0639,0.00294,0.218
"Plasmodium falciparum isolate 132 (pfmdr1 allele: 86N, 1042N, pfmdr1 copies: 1)",2.88,4.03,4.72,0.00599,0.00145,0.0674
"Plasmodium falciparum isolate 67 (pfmdr1 allele: 86N, 1042N, pfmdr1 copies: 4)",3.03,6.62,2.3,0.126,0.00107,0.357
"Plasmodium falciparum isolate 148 (pfmdr1 allele: 86N, 1042N, pfmdr1 copies: 3)",10,7.54,5.47,0.216,0.0115,0.157
"Plasmodium falciparum isolate 355 (pfmdr1 allele: 86N, 1042N, pfmdr1 copies: 2)",–,–,4.26,–,–,0.266
"Plasmodium falciparum isolate 107 (pfmdr1 allele: 86N, 1042N, pfmdr1 copies: 3)",–,–,6.65,–,–,0.141
"Plasmodium falciparum isolate 200 (pfmdr1 allele: 86N, 1042N, pfmdr1 copies: 3)",2.02,5.94,4.04,0.0418,0.00044,0.307
"Plasmodium falciparum isolate 231 (pfmdr1 allele: 86N, 1042N, pfmdr1 copies: 1)",2.04,3.36,1.77,0.0216,0.000852,0.0339
"Plasmodium falciparum isolate 92 (pfmdr1 allele: 86N, 1042N, pfmdr1 copies: 1)",–,–,3.46,–,–,0.184
"Plasmodium falciparum isolate 5 (pfmdr1 allele: 86N, 1042N, pfmdr1 copies: 1)",2.47,–,9.98,0.0874,–,0.354
"Plasmodium falciparum isolate 65 (pfmdr1 allele: 86N, 1042N, pfmdr1 copies: 2)",–,–,2.32,–,–,0.0418
"Plasmodium falciparum isolate 444 (pfmdr1 allele: 86N, 1042N, pfmdr1 copies: 1)",8.4,–,1.95,0.0705,–,0.116
"Plasmodium falciparum isolate 322 (pfmdr1 allele: 86N, 1042N, pfmdr1 copies: 2)",–,1.89,3.59,–,0.000841,0.0707
"Plasmodium falciparum isolate 117 (pfmdr1 allele: 86N, 1042N, pfmdr1 copies: 3)",4.04,–,5.46,0.123,–,0.0822
"Plasmodium falciparum isolate 371 (pfmdr1 allele: 86N, 1042N, pfmdr1 copies: 2)",–,9.99,6.75,–,0.00359,0.151
"Plasmodium falciparum isolate 263 (pfmdr1 allele: 86N, 1042N, pfmdr1 copies: 2)",–,1.37,1.26,–,0.00136,0.0234
"Plasmodium falciparum isolate 128 (pfmdr1 allele: 86N, 1042N, pfmdr1 copies: 2)",–,9.98,9.79,–,0.00335,0.684
"Plasmodium falciparum isolate 483 (pfmdr1 allele: 86N, 1042N, pfmdr1 copies: 2)",–,10.9,1.87,–,0.00247,0.197
"Plasmodium falciparum isolate 302 (pfmdr1 allele: 86N, 1042N, pfmdr1 copies: 2)",9.99,–,4.94,0.124,–,0.0891
"Plasmodium falciparum isolate 113 (pfmdr1 allele: 86N, 1042N, pfmdr1 copies: 3)",–,7.91,1.25,–,0.000888,0.0671

Test System,slope (mefloquine [1]),slope (artesunate [2]),slope (chloroquine [3]),EC50 of parasite growth (mefloquine [4]) [µg/mL],EC50 of parasite growth (artesunate [5]) [µg/mL],EC50 of parasite growth (chloroquine [6]) [µg/mL]
"Plasmodium falciparum isolate 118 (pfmdr1 allele: 86N, 1042N, pfmdr1 copies: 3)",–,–,9.9,–,–,0.357
"Plasmodium falciparum isolate 466 (pfmdr1 allele: 86Y, pfmdr1 copies: 1)",4.91,–,3.43,0.0217,–,0.534
"Plasmodium falciparum isolate 462 (pfmdr1 allele: 86N, 1042N, pfmdr1 copies: 1)",–,10,4.03,–,0.00211,0.128
"Plasmodium falciparum isolate 283 (pfmdr1 allele: 86N, 1042N, pfmdr1 copies: 5)",–,–,2.24,–,–,0.12
"Plasmodium falciparum isolate 415 (pfmdr1 allele: 86N, 1042N, pfmdr1 copies: 1)",5.52,–,2.14,0.0414,–,0.194
"Plasmodium falciparum isolate 206 (pfmdr1 allele: 86N, 1042N, pfmdr1 copies: 3)",–,3.72,5.89,–,0.00315,0.0676
"Plasmodium falciparum isolate 230 (pfmdr1 allele: 86N, 1042N, pfmdr1 copies: 1)",–,5.38,4.98,–,0.00158,0.19
"Plasmodium falciparum isolate 114 (pfmdr1 allele: 86N, 1042N, pfmdr1 copies: 2)",2.64,–,3.21,0.0591,–,0.122
"Plasmodium falciparum isolate 109 (pfmdr1 allele: 86N, 1042N, pfmdr1 copies: 2)",–,7.25,3.71,–,0.000956,0.0914
"Plasmodium falciparum isolate 243 (pfmdr1 allele: 86N, 1042N, pfmdr1 copies: 2)",–,–,0.914,–,–,0.0437
"Plasmodium falciparum isolate 160 (pfmdr1 allele: 86N, 1042N, pfmdr1 copies: 1)",–,2.01,2.72,–,0.00131,0.165
"Plasmodium falciparum isolate 294 (pfmdr1 allele: 86N, 1042N, pfmdr1 copies: 3)",3.89,–,2.77,0.00695,–,0.0467
"Plasmodium falciparum isolate 15 (pfmdr1 allele: 86N, 1042N, pfmdr1 copies: 3)",–,3.04,1.22,–,0.000652,0.0343
"Plasmodium falciparum isolate 3 (pfmdr1 allele: 86Y, pfmdr1 copies: 1)",–,18.2,2.83,0.00905,0.000597,0.137
"Plasmodium falciparum isolate 97 (pfmdr1 allele: 86N, 1042N, pfmdr1 copies: 2)",1.69,–,4.64,0.0464,–,0.104
"Plasmodium falciparum isolate 419 (pfmdr1 allele: 86N, 1042N, pfmdr1 copies: 2)",3.29,–,7.33,0.0687,–,0.0955
"Plasmodium falciparum isolate 140 (pfmdr1 allele: 86N, 1042N, pfmdr1 copies: 1)",1.85,2.62,–,0.0184,0.000578,–
"Plasmodium falciparum isolate 273 (pfmdr1 allele: 86N, 1042N, pfmdr1 copies: 2)",2.22,9.79,–,0.0463,0.00106,–
"Plasmodium falciparum isolate 211 (pfmdr1 allele: 86N, 1042N, pfmdr1 copies: 2)",–,–,4.11,–,–,0.112
"Plasmodium falciparum isolate 19 (pfmdr1 allele: 86N, 1042N, pfmdr1 copies: 2)",4.88,–,2.87,0.0716,–,0.14
"Plasmodium falciparum isolate 130 (pfmdr1 allele: 86N, 1042N, pfmdr1 copies: 3)",1.76,5.08,–,0.00551,0.000545,–
"Plasmodium falciparum isolate 10 (pfmdr1 allele: 86N, 1042N, pfmdr1 copies: 3)",1.79,–,1.69,0.0539,–,0.0355
"Plasmodium falciparum isolate 134 (pfmdr1 allele: 86N, 1042N, pfmdr1 copies: 2)",1.87,4.29,–,0.063,0.00186,–
"Plasmodium falciparum isolate 449 (pfmdr1 allele: 86N, 1042N, pfmdr1 copies: 2)",–,–,2.89,–,–,0.193
"Plasmodium falciparum isolate 405 (pfmdr1 allele: 86N, 1042N, pfmdr1 copies: 2)",–,10,3.79,–,0.00368,0.241
"Plasmodium falciparum isolate 426 (pfmdr1 allele: 86N, 1042N, pfmdr1 copies: 3)",1.64,–,1.18,0.0692,–,0.164
